According to patent US5807535A, “Metal complexes of hydroxyaryl containing aminocarboxylic acid chelating agents” (Australian Nuclear Science & Technology Organisation, priority 1992, dated 1998):
Further values from the same series stand in other lists.

Assay: Biodistribution of 67Ga complexes in mice
Format: in vivo, balb/c mice
Description: To ligand (50 μL, 10 mg/mL, 0.2 M NaOAc, […]) was added ^67 Ga citrate (18.5 MBq) and the resultant mixture diluted to 1 mL (0.2 M NaOAc, pH 7). The pH was adjusted to 12 with 1 M NaOH (20 μL) and heated at 40° C. for 40 min. The final volume was adjusted (to 5 mL) with saline and sterilised by filtering through a 0.22 μm filter.
Each animal was injected via tail vein with ^67 Ga complex (100 μL, ~3.7×10^5 Bq). Animals were sacrificed at various time intervals (5 animals per time point/6 time points). Data are illustrated in FIG. 26-30 and in Tables 13-17.
Each ^67 Ga-ligand complex has been evaluated in balb/c mice. […] (see FIG. 26-30).

## Cc1cc(C)c(O)c(NC(=O)CN(CCN(CC(=O)O)CC(=O)Nc2cc(C)cc(C)c2O)CC(=O)O)c1 [Compound 6]
1 min
  biodistribution bladder: 0.33 % ID
  biodistribution blood: 13.61 % ID
  biodistribution caecum: 0.27 % ID
  biodistribution colon: 0.49 % ID
  biodistribution duodenum: 0.08 % ID
  biodistribution heart: 0.29 % ID
  biodistribution ileum: 0.21 % ID
  biodistribution jejunum: 1.19 % ID
  biodistribution lungs: 0.78 % ID
  biodistribution pancreas: 0.25 % ID
  biodistribution salivary gl: 0.18 % ID
  biodistribution stomach GL: 0.20 % ID
  biodistribution stomach SQ: 0.08 % ID
  biodistribution testes: 0.17 % ID
3 min
  biodistribution bladder: 0.62 % ID
  biodistribution blood: 6.08 % ID
  biodistribution caecum: 0.20 % ID
  biodistribution colon: 0.28 % ID
  biodistribution duodenum: 0.43 % ID
  biodistribution heart: 0.13 % ID
  biodistribution ileum: 0.15 % ID
  biodistribution jejunum: 1.25 % ID
  biodistribution lungs: 0.64 % ID
  biodistribution pancreas: 0.11 % ID
  biodistribution salivary gl: 0.12 % ID
  biodistribution stomach GL: 0.22 % ID
  biodistribution stomach SQ: 0.07 % ID
  biodistribution testes: 0.17 % ID
5 min
  biodistribution bladder: 0.94 % ID
  biodistribution blood: 3.02 % ID
  biodistribution caecum: 0.13 % ID
  biodistribution colon: 0.18 % ID
  biodistribution duodenum: 0.41 % ID
  biodistribution heart: 0.09 % ID
  biodistribution ileum: 0.08 % ID
  biodistribution jejunum: 2.25 % ID
  biodistribution lungs: 0.25 % ID
  biodistribution pancreas: 0.06 % ID
  biodistribution salivary gl: 0.06 % ID
  biodistribution stomach GL: 0.20 % ID
  biodistribution stomach SQ: 0.04 % ID
  biodistribution tail: 0.73 % ID
  biodistribution testes: 0.12 % ID
10 min
  biodistribution bladder: 0.37 % ID
  biodistribution blood: 1.44 % ID
  biodistribution caecum: 0.17 % ID
  biodistribution colon: 0.27 % ID
  biodistribution duodenum: 1.75 % ID
  biodistribution heart: 0.04 % ID
  biodistribution ileum: 0.13 % ID
  biodistribution jejunum: 5.34 % ID
  biodistribution lungs: 0.17 % ID
  biodistribution pancreas: 0.12 % ID
  biodistribution salivary gl: 0.02 % ID
  biodistribution stomach GL: 1.61 % ID
  biodistribution stomach SQ: 0.32 % ID
  biodistribution tail: 0.84 % ID
  biodistribution testes: 0.07 % ID
30 min
  biodistribution bladder: 0.27 % ID
  biodistribution blood: 0.33 % ID
  biodistribution caecum: 0.15 % ID
  biodistribution colon: 0.27 % ID
  biodistribution duodenum: 0.27 % ID
  biodistribution heart: 0.01 % ID
  biodistribution ileum: 0.06 % ID
  biodistribution jejunum: 3.41 % ID
  biodistribution lungs: 0.19 % ID
  biodistribution pancreas: 0.08 % ID
  biodistribution salivary gl: 0.01 % ID
  biodistribution stomach GL: 0.35 % ID
  biodistribution stomach SQ: 0.03 % ID
  biodistribution tail: 0.55 % ID
  biodistribution testes: 0.07 % ID
120 min
  biodistribution bladder: 0.62 % ID
  biodistribution blood: 1.79 % ID
  biodistribution bone: 0.06 % ID
  biodistribution caecum: 1.70 % ID
  biodistribution colon: 0.72 % ID
  biodistribution duodenum: 0.02 % ID
  biodistribution heart: 0.00 % ID
  biodistribution ileum: 0.10 % ID
  biodistribution jejunum: 0.12 % ID
  biodistribution lungs: 0.01 % ID
  biodistribution pancreas: 0.00 % ID
  biodistribution salivary gl: 0.00 % ID
  biodistribution stomach GL: 0.01 % ID
  biodistribution stomach SQ: 0.01 % ID
  biodistribution tail: 0.10 % ID
  biodistribution testes: 0.02 % ID

## O=C(O)CN(CCN(CC(=O)O)CC(=O)Nc1ccc(Cl)cc1O)CC(=O)Nc1ccc(Cl)cc1O [Compound 2]
1 min
  biodistribution bladder: 0.08 % ID
  biodistribution blood: 17.45 % ID
  biodistribution caecum: 0.42 % ID
  biodistribution colon: 0.48 % ID
  biodistribution duodenum: 0.13 % ID
  biodistribution heart: 0.42 % ID
  biodistribution ileum: 0.15 % ID
  biodistribution jejunum: 1.42 % ID
  biodistribution ovaries: 0.06 % ID
  biodistribution pancreas: 0.34 % ID
  biodistribution salivary gl: 0.11 % ID
  biodistribution stomach GL: 0.26 % ID
  biodistribution stomach SQ: 0.07 % ID
  biodistribution tail: 0.00 % ID
3 min
  biodistribution bladder: 0.06 % ID
  biodistribution blood: 6.02 % ID
  biodistribution caecum: 0.23 % ID
  biodistribution colon: 0.28 % ID
  biodistribution duodenum: 0.34 % ID
  biodistribution heart: 0.14 % ID
  biodistribution ileum: 0.11 % ID
  biodistribution jejunum: 1.67 % ID
  biodistribution ovaries: 0.05 % ID
  biodistribution pancreas: 0.11 % ID
  biodistribution salivary gl: 0.05 % ID
  biodistribution stomach GL: 0.20 % ID
  biodistribution stomach SQ: 0.08 % ID
  biodistribution tail: 0.00 % ID
5 min
  biodistribution bladder: 0.09 % ID
  biodistribution blood: 3.31 % ID
  biodistribution caecum: 0.15 % ID
  biodistribution colon: 0.25 % ID
  biodistribution duodenum: 0.67 % ID
  biodistribution heart: 0.09 % ID
  biodistribution ileum: 0.21 % ID
  biodistribution jejunum: 3.68 % ID
  biodistribution ovaries: 0.04 % ID
  biodistribution pancreas: 0.10 % ID
  biodistribution salivary gl: 0.02 % ID
  biodistribution stomach GL: 0.53 % ID
  biodistribution stomach SQ: 0.18 % ID
  biodistribution tail: 0.00 % ID
10 min
  biodistribution bladder: 0.03 % ID
  biodistribution blood: 2.16 % ID
  biodistribution caecum: 0.04 % ID
  biodistribution colon: 0.10 % ID
  biodistribution duodenum: 1.22 % ID
  biodistribution heart: 0.03 % ID
  biodistribution ileum: 0.03 % ID
  biodistribution jejunum: 5.99 % ID
  biodistribution ovaries: 0.01 % ID
  biodistribution pancreas: 0.03 % ID
  biodistribution salivary gl: 0.01 % ID
  biodistribution stomach GL: 0.28 % ID
  biodistribution stomach SQ: 0.25 % ID
  biodistribution tail: 0.00 % ID
30 min
  biodistribution bladder: 0.01 % ID
  biodistribution blood: 3.20 % ID
  biodistribution caecum: 0.20 % ID
  biodistribution colon: 0.16 % ID
  biodistribution duodenum: 0.31 % ID
  biodistribution heart: 0.01 % ID
  biodistribution ileum: 0.78 % ID
  biodistribution jejunum: 6.64 % ID
  biodistribution lungs: 0.06 % ID
  biodistribution ovaries: 0.01 % ID
  biodistribution pancreas: 0.08 % ID
  biodistribution salivary gl: 0.00 % ID
  biodistribution stomach GL: 0.11 % ID
  biodistribution stomach SQ: 0.03 % ID
  biodistribution tail: 0.56 % ID
120 min
  biodistribution bladder: 0.00 % ID
  biodistribution blood: 0.07 % ID
  biodistribution caecum: 7.06 % ID
  biodistribution colon: 2.03 % ID
  biodistribution duodenum: 0.04 % ID
  biodistribution heart: 0.00 % ID
  biodistribution ileum: 0.28 % ID
  biodistribution jejunum: 0.99 % ID
  biodistribution lungs: 0.01 % ID
  biodistribution ovaries: 0.00 % ID
  biodistribution pancreas: 0.00 % ID
  biodistribution salivary gl: 0.00 % ID
  biodistribution stomach GL: 0.03 % ID
  biodistribution stomach SQ: 0.03 % ID
  biodistribution tail: 0.12 % ID
